Laboratory results as given in the supplement of paper PMC8728848.
Some of the results follow.

Legend:
Test in all cases: glycan array binding signal (z-score within array); higher = stronger binding
Details in all cases: glycan notation: IUPAC condensed, linker removed
[1] = target: Fuc(a1-2)Gal(b1-4)GlcNAc(b1-3)Gal(b1-4)GlcNAc(b1-3)Gal(b1-4)GlcNAc
In short: (§1)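 The binding signal is a Z-score computed within each array and averaged over linkers. Arrays of the same protein sequence at different concentrations or buffers were also averaged together. Data originate from 3228 arrays in the Consortium for Functional Glycomics database, kept only where the protein sequence was available.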

[2] = target: Fuc(a1-2)Gal(b1-4)GlcNAc(b1-3)GalNAc
In short: as §1

[3] = target: Fuc(a1-2)Gal(b1-4)GlcNAc(b1-3)[Fuc(a1-2)Gal(b1-4)GlcNAc(b1-6)]GalNAc
In short: as §1

[4] = target: Fuc(a1-2)Gal(b1-4)GlcNAc(b1-6)GalNAc
In short: as §1

[5] = target: Fuc(a1-2)Gal(b1-4)GlcNAc6S
In short: as §1

[6] = target: Fuc(a1-2)Gal(b1-4)[Fuc(a1-3)]GlcNAc
In short: as §1

[7] = target: Fuc(a1-2)Gal(b1-4)[Fuc(a1-3)]GlcNAc(b1-2)Man(a1-3)[Fuc(a1-2)Gal(b1-4)[Fuc(a1-3)]GlcNAc(b1-2)Man(a1-6)]Man(b1-4)GlcNAc(b1-4)GlcNAc
In short: as §1

[8] = target: Fuc(a1-2)Gal(b1-4)[Fuc(a1-3)]GlcNAc(b1-2)Man(a1-6)[Fuc(a1-2)Gal(b1-4)[Fuc(a1-3)]GlcNAc(b1-2)Man(a1-3)]Man(b1-4)GlcNAc(b1-4)[Fuc(a1-6)]GlcNAc
In short: as §1

[9] = target: Fuc(a1-2)Gal(b1-4)[Fuc(a1-3)]GlcNAc(b1-2)[Fuc(a1-2)Gal(b1-4)[Fuc(a1-3)]GlcNAc(b1-4)]Man(a1-3)[Fuc(a1-2)Gal(b1-4)[Fuc(a1-3)]GlcNAc(b1-2)Man(a1-6)]Man(b1-4)GlcNAc(b1-4)GlcNAc
In short: as §1

[10] = target: Fuc(a1-2)Gal(b1-4)[Fuc(a1-3)]GlcNAc(b1-3)Gal(b1-4)[Fuc(a1-3)]GlcNAc
In short: as §1

[11] = target: Fuc(a1-2)Gal(b1-4)[Fuc(a1-3)]GlcNAc(b1-3)Gal(b1-4)[Fuc(a1-3)]GlcNAc(b1-3)Gal(b1-4)[Fuc(a1-3)]GlcNAc
In short: as §1

[12] = target: Fuc(a1-2)Gal(b1-4)[Fuc(a1-3)]GlcNAc(b1-3)GalNAc
In short: as §1

[13] = target: Fuc(a1-2)Gal(b1-4)[Fuc(a1-3)]GlcNAc(b1-3)[Neu5Ac(a2-6)Gal(b1-4)GlcNAc(b1-6)]Gal(b1-4)Glc
In short: as §1

[14] = target: Fuc(a1-2)Gal6S(b1-3)GlcNAc
In short: as §1

[15] = target: Fuc(a1-2)Gal6S(b1-3)GlcNAc6S
In short: as §1

Fuc(a1-2)Gal6S(b1-4)Glc = target: Fuc(a1-2)Gal6S(b1-4)Glc
In short: as §1

[16] = target: Fuc(a1-2)Gal6S(b1-4)Glc6S
In short: as §1

[17] = target: Fuc(a1-2)Gal6S(b1-4)GlcNAc
In short: as §1

Fuc(a1-2)[Gal(a1-3)]Gal = target: Fuc(a1-2)[Gal(a1-3)]Gal
In short: as §1

[18] = target: Fuc(a1-2)[Gal(a1-3)]Gal(b1-3)GalNAc
In short: as §1

[19] = target: Fuc(a1-2)[Gal(a1-3)]Gal(b1-3)GlcNAc
In short: as §1

[20] = target: Fuc(a1-2)[Gal(a1-3)]Gal(b1-3)GlcNAc(b1-2)Man(a1-3)[Fuc(a1-2)[Gal(a1-3)]Gal(b1-3)GlcNAc(b1-2)Man(a1-6)]Man(b1-4)GlcNAc(b1-4)GlcNAc
In short: as §1

[21] = target: Fuc(a1-2)[Gal(a1-3)]Gal(b1-3)GlcNAc(b1-2)Man(a1-3)[Fuc(a1-2)[Gal(a1-3)]Gal(b1-3)GlcNAc(b1-2)Man(a1-6)]Man(b1-4)GlcNAc(b1-4)[Fuc(a1-6)]GlcNAc
In short: as §1

[22] = target: Fuc(a1-2)[Gal(a1-3)]Gal(b1-3)GlcNAc(b1-3)GalNAc
In short: as §1

[23] = target: Fuc(a1-2)[Gal(a1-3)]Gal(b1-4)Glc
In short: as §1

[24] = target: Fuc(a1-2)[Gal(a1-3)]Gal(b1-4)GlcNAc
In short: as §1

[25] = target: Fuc(a1-2)[Gal(a1-3)]Gal(b1-4)GlcNAc(b1-2)Man(a1-3)[Fuc(a1-2)[Gal(a1-3)]Gal(b1-4)GlcNAc(b1-2)Man(a1-6)]Man(b1-4)GlcNAc(b1-4)GlcNAc
In short: as §1

[26] = target: Fuc(a1-2)[Gal(a1-3)]Gal(b1-4)GlcNAc(b1-2)Man(a1-3)[Fuc(a1-2)[Gal(a1-3)]Gal(b1-4)GlcNAc(b1-2)Man(a1-6)]Man(b1-4)GlcNAc(b1-4)[Fuc(a1-6)]GlcNAc
In short: as §1

[27] = target: Fuc(a1-2)[Gal(a1-3)]Gal(b1-4)GlcNAc(b1-3)GalNAc
In short: as §1

[28] = target: Fuc(a1-2)[Gal(a1-3)]Gal(b1-4)GlcNAc(b1-6)GalNAc
In short: as §1

B1: Morniga (Morus nigra) (protein)
chain: MAGTSTNTQTTGTSQTVEVGLWGGPGGNAWDDGSYTGIREINLSHGDAIGAFSVIYDLNGQPFTGPTHPGNEPSFKTVKITLDFPNEFLVSVSGYTGVLPRLATGKDVIRSLTFKTNKKTYGPYGKEEGTPFSLPIENGLIVGFKGRSGFVVDAIGVHLS
glycan array binding signal (z-score) [1]: -0.332 | glycan array binding signal (z-score) [2]: -0.331 | glycan array binding signal (z-score) [3]: -0.325 | glycan array binding signal (z-score) [4]: -0.329 | glycan array binding signal (z-score) [5]: -0.33 | glycan array binding signal (z-score) [6]: -0.334 | glycan array binding signal (z-score) [7]: -0.109 | glycan array binding signal (z-score) [8]: 0.63 | glycan array binding signal (z-score) [9]: -0.28 | glycan array binding signal (z-score) [10]: -0.334 | glycan array binding signal (z-score) [11]: -0.329 | glycan array binding signal (z-score) [12]: -0.263 | glycan array binding signal (z-score) [13]: -0.329 | glycan array binding signal (z-score) [14]: -0.337 | glycan array binding signal (z-score) [15]: -0.295 | glycan array binding signal (z-score) (Fuc(a1-2)Gal6S(b1-4)Glc): -0.341 | glycan array binding signal (z-score) [16]: -0.33 | glycan array binding signal (z-score) [17]: -0.341 | glycan array binding signal (z-score) (Fuc(a1-2)[Gal(a1-3)]Gal): -0.332 | glycan array binding signal (z-score) [18]: -0.328 | glycan array binding signal (z-score) [19]: -0.332 | glycan array binding signal (z-score) [20]: -0.019 | glycan array binding signal (z-score) [21]: -0.257 | glycan array binding signal (z-score) [22]: -0.333 | glycan array binding signal (z-score) [23]: -0.342 | glycan array binding signal (z-score) [24]: -0.333 | glycan array binding signal (z-score) [25]: 2.68 | glycan array binding signal (z-score) [26]: 0.396 | glycan array binding signal (z-score) [27]: -0.335 | glycan array binding signal (z-score) [28]: -0.339
